# Test results taken from PubChem BioAssay AID360 (National Center for Advancing Translational Sciences (NCATS), 2006).
# Screen size: about 48,000 compounds; about 550 (1.1%) were called active. This list was built around the results that the source calls inconclusive (neither active nor inactive); the mix of calls is not that of the screen. Rule as the data show it: active = potency below about 15 µM; inconclusive = mostly about 16 µM to 33 µM; inactive = weaker than that. No potency is given beside an inconclusive call; the fits are too rough.
# Biological target: Lysosomal acid glucosylceramidase (Homo sapiens) (UniProt P04062)
# Chain of UniProt P04062 (P04062 whole entry, looked up): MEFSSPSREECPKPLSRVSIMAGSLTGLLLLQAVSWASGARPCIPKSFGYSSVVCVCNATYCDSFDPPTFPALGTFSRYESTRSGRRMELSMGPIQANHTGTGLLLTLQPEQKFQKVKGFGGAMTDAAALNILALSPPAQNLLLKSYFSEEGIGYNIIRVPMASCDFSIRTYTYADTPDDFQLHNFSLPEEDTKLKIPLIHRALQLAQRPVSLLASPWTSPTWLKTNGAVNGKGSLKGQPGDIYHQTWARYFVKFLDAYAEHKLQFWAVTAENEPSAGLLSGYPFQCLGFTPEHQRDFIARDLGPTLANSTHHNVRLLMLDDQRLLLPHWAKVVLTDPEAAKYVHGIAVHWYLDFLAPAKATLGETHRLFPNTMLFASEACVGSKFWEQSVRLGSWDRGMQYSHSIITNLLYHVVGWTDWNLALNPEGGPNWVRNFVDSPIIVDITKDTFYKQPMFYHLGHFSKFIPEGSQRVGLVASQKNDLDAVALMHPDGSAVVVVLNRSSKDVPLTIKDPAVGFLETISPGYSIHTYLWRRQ
# Assay: Glucocerebrosidase;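 also: the screen sought inhibitors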
# Conditions: purified enzyme, resorufin glucoside fluorescence (screen aimed at inhibitors), 20 min
# Summary of the method: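 Wild-type enzyme at 0.2 nM final in 50mM citric acid/KH2PO4, 10mM sodium taurocholate, 0.01% tween-20, pH 5.9, with resorufin beta-D-glucopyranoside at 30 uM final. Compounds titrated, 20 min at RT, red fluorescence read; AC50 from titration.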
# Potency is read from the fitted curve at half-maximal effect.
row,Compound,Potency
1,O=S(=O)(Cc1ccc(Cl)cc1)Nc1ccc2c(c1)OCO2,inconclusive [decreasing]
2,CC12CCCCN1CCCc1c2[nH]c2ccccc12 (stereo not given),inactive: > 76.9 µM
3,CN(CC(=O)N1CCN(c2ccccn2)CC1)S(=O)(=O)c1ccc(Br)cc1,inconclusive [decreasing]
4,Cc1ccc(S(=O)(=O)Nc2cc(C(=O)NCCN3CCCC3)ccc2N2CCCCC2)cc1,active: 10.3 µM
5,O=C(Nc1cc(C(F)(F)F)ccc1N1CCCCC1)c1ccco1,inconclusive [increasing]
6,Cc1cccc(Nc2nc(N)nc(CN3CCC(C)CC3)n2)c1C,active: 12.4 µM
7,O=C(CCCn1c(=S)[nH]c2cc3c(cc2c1=O)OCO3)N1CCN(c2ncccn2)CC1,inconclusive [decreasing]
8,CCCCN1CCc2c([nH]c3ccc(C)cc23)C1=O,inactive: > 76.9 µM
9,COc1ccccc1NC(=O)Cn1nc(C(F)(F)F)c2c1CCCC2,inactive: > 76.9 µM
10,Cc1cc(NC(=O)NC2(C(F)(F)F)Oc3ccc(Cl)cc3O2)no1 (stereo not given),inconclusive [decreasing]
11,CCN1C(=O)C2(C(C#N)=C(N)Oc3c2c(C)nn3-c2ccccc2)c2ccccc21 (stereo not given),inconclusive [decreasing]
12,O=C1Nc2ccc(S(=O)(=O)N3CCCC3)c3ccc(S(=O)(=O)N4CCCC4)c1c23,inconclusive [decreasing]
13,O=C(Nc1cc(N2CCOCC2)ncn1)NC1(C(F)(F)F)Oc2ccc(Cl)cc2O1 (stereo not given),inconclusive [decreasing]
14,Cc1cc(N2CCOCC2)nc2ccc(NC(=O)CCC(=O)N3CCCC(C)C3)cc12 (stereo not given),active: 1.18 µM
15,CC1CCCCC1NS(=O)(=O)c1ccc(S(=O)(=O)NCc2ccncc2)cc1 (stereo not given),inconclusive [decreasing]
16,OCCNc1nc2ccc(Cl)cc2[nH]1,inconclusive [decreasing]
17,Cc1ccc(S(=O)(=O)N2CCCC(C(=O)N(Cc3cccs3)C3CC3)C2)cc1 (stereo not given),inconclusive [decreasing]
18,COc1ccc(NC(=O)CN2CCCCC2)cc1,inconclusive [decreasing]
19,O=C(CN1CCOCC1)Nc1ccc(OCc2ccccc2)cc1,inconclusive [decreasing]
20,CC1(C)Cc2c(sc3nc(SCC(=O)N4CCOCC4)nc(N)c23)CO1,active: 14 µM
21,COC(=O)c1ccccc1NC(=O)c1cnn2c(C(F)F)cc(C3CC3)nc12,inconclusive [increasing]
22,COCC(C)n1c(SCC(=O)NC(=O)Nc2ccc3c(c2)OCCO3)nc2ccccc2c1=O (stereo not given),inconclusive [increasing]
23,CC(C)CC(OC(=O)c1cccs1)C(=O)NCc1cccs1 (stereo not given),inconclusive [decreasing]
24,CCc1cccc(NC(=O)CN(c2ccc(OC)cc2)S(=O)(=O)c2c(C)n[nH]c2C)c1,inconclusive [decreasing]
25,CN1CCN(S(=O)(=O)c2ccc(Cc3ccc(S(=O)(=O)N4CCN(C)CC4)cc3)cc2)CC1,inconclusive [decreasing]

row,Compound,Potency
1,CC(C)(C)c1cc(CN2CCN(CCO)CC2)cc(C(C)(C)C)c1O,inconclusive [decreasing]
2,CCCn1c(=N)n(CC(=O)C(C)(C)C)c2ccccc21,active: 4.39 µM
3,CCc1ccc2oc(-c3cccc(NC(=O)c4cccnc4)c3)nc2c1,inconclusive [decreasing]
4,CCOC(=O)C1CCN(S(=O)(=O)c2cccc3nonc23)CC1,inactive: > 76.9 µM
5,CC1CCCCC1NC(=O)c1cc2c(s1)CS(=O)(=O)C2 (stereo not given),inconclusive [decreasing]
6,CC(=O)c1ccc(NC(=O)c2noc3c2CCCCC3)cc1,inconclusive [increasing]
7,CN(C)c1ccc(NC(=O)Nc2ccc3snnc3c2)cc1,inconclusive [decreasing]
8,CN(c1cccc(NC(=O)CCSc2ccccc2)c1)S(C)(=O)=O,inconclusive [decreasing]
9,CCc1ccc2nc(NC3=NCN(CCCN4CCOCC4)CN3)nc(C)c2c1,inconclusive [decreasing]
10,O=C(Nc1nc(-c2ccco2)c(-c2ccco2)s1)C1CC(=O)N(c2ccc3c(c2)OCCO3)C1 (stereo not given),inconclusive [decreasing]
11,O=C(Nc1ccc(Cl)cc1F)C1CCN(S(=O)(=O)c2cccnc2)CC1,inconclusive [decreasing]
12,CCOC(=O)c1[nH]c2cc3c(cc2c1CCCN1C(=O)c2ccccc2C1=O)OCCO3,inconclusive [increasing]
13,O=c1c2ccccc2c2ccccc2c(=O)n1Cc1ccco1,inconclusive [decreasing]
14,COc1ccc(NC(=O)CC2SC(=NCc3ccccc3OC)NC2=O)cc1 (stereo not given),inconclusive [decreasing]
15,CCc1nc(N)c(C#N)c(-c2cccn2C)c1C,inactive: > 76.9 µM
16,COc1ccc(Nc2nc(N3CCCC3)nc3ccccc23)c(OC)c1,active: 3.37 µM
17,O=C(CSC1=Nc2ccccc2C2=NC(CC(=O)NC3CCCCC3)C(=O)N12)NCc1ccco1 (stereo not given),inactive: > 76.9 µM
18,Cc1ccc(S(=O)(=O)NCC(=O)N(CC(=O)NC2CCCC2)c2ccc3c(c2)OCCO3)cc1,inconclusive [decreasing]
19,O=C(CSC1=NCCN1)NC12CC3CC(CC(C3)C1)C2,inconclusive [decreasing]
20,COc1cc(-c2nnc(SCC(=O)c3ccccc3)o2)cc(OC)c1OC,inconclusive [increasing]
21,COc1ccc(CCn2nnnc2C(c2ccc(C)cc2)N2CCN(C)CC2)cc1OC (stereo not given),inactive: > 76.9 µM
22,C=CCN1CC(c2nc3ccccc3n2CCOc2ccccc2)CC1=O (stereo not given),inactive: > 76.9 µM
23,CCn1c(Cc2c(C)[nH]c3ccccc23)n[nH]c1=S,inactive: > 76.9 µM
24,O=C(NCCOc1ccccc1)c1cc2ccccc2o1,inactive: > 76.9 µM
25,CCOc1cc(C2c3c(oc4cc(C)c(Cl)cc4c3=O)C(=O)N2Cc2ccco2)ccc1O (stereo not given),inactive: > 76.9 µM

row,Compound,Potency
1,Nc1nc(CN2CCc3ccccc3C2)nc(Nc2ccccc2)n1,inconclusive [decreasing]
2,CCCc1cc(=O)[nH]c(Nc2ccc(OC)c(Cl)c2)n1,inconclusive [decreasing]
3,O=C(CN1CCN(Cc2ccc3c(c2)OCO3)CC1)N1CCc2[nH]c3ccc(F)cc3c2C1,inconclusive [decreasing]
4,Cc1ccc(O)c(-c2cc(-c3ccccc3C)[nH]n2)c1,inconclusive [decreasing]
5,O=C(OCc1nc2ccccc2s1)c1cnccn1,inactive: > 76.9 µM
6,O=C(NC1CC2CCCC(C1)N2Cc1ccco1)NC12CC3CC(CC(C3)C1)C2 (stereo not given),inconclusive [decreasing]
7,CN1CCN(S(=O)(=O)c2ccc(N3CCN(S(=O)(=O)/C=C/c4ccccc4)CC3)nc2)CC1,active: 13 µM
8,COc1cccc(C(=O)Nc2ccc3nc(N4CCN(c5ncccn5)CC4)cc(C)c3c2)c1OC,active: 8.68 µM
9,CN1CCN(S(=O)(=O)c2ccc(NC(=O)Nc3cccc(Cl)c3)cc2)CC1,inconclusive [decreasing]
10,COc1ccc(N2CCN(CCNC(=O)C3CCN(S(=O)(=O)c4cccs4)CC3)CC2)cc1,inconclusive [decreasing]
11,C=CCc1cccc(CNc2nc3ccccc3n2CC)c1O,inconclusive [decreasing]
12,Cc1ccc(N(CC(=O)Nc2ccc3c(c2)OCCO3)S(=O)(=O)c2c(C)noc2C)cc1,inconclusive [decreasing]
13,CCOc1ccc(CCNC(=O)CN2CCN(Cc3ccccc3C)C2=O)cc1OCC,inactive: > 76.9 µM
14,CC(C)c1ccc(NC(=O)C2CC(=O)N=C(N)S2)cc1 (stereo not given),active: 3.77 µM
15,CCC(Sc1ccc2nnc(-c3ccc(F)cc3)n2n1)C(=O)OC (stereo not given),inactive: > 76.9 µM
16,COc1ccc2nc(SCC(=O)Nc3ccc(S(=O)(=O)Nc4onc(C)c4C)cc3)[nH]c2c1,inconclusive [decreasing]
17,N=c1c2c3c(sc2ncn1CCN1CCOCC1)CCCC3,inconclusive [decreasing]
18,COc1ccc(N2CCN(C(=O)C3CCC(Cn4c(=S)[nH]c5ccccc5c4=O)CC3)CC2)cc1 (stereo not given),inconclusive [decreasing]
19,COc1ccc(C(C)C)cc1S(=O)(=O)Nc1ccc(Cl)cn1,inconclusive [decreasing]
20,CCN(Cc1ccccc1)S(=O)(=O)c1ccc(S(=O)(=O)N2CCN(C)CC2)cc1,inconclusive [decreasing]
21,COc1ccccc1NC(=O)C1=C(C)Nc2nnnn2C1c1cccc(Br)c1 (stereo not given),inconclusive [decreasing]
22,COC(=O)c1cc2occc2n1Cc1c(F)cccc1Cl,inconclusive [decreasing]
23,CCOc1cc2[nH]c(=O)n(CCCCC(=O)NC3CCCCCC3)c(=O)c2cc1OCC,inactive: > 76.9 µM
24,CC(C)C[C@H](NC(=O)NC(C)C)C(=O)O,inactive: > 76.9 µM
25,Cc1ccc(C(=O)CSc2nnc(COc3cccc4cccnc34)o2)cc1,inactive: > 76.9 µM
